47 compounds from PubChem BioAssay AID493208 (National Center for Advancing Translational Sciences (NCATS), 2011) can be followed below.

SMILES strings stand for the structures. Screen size: about 44,000 compounds; about 340 (0.77%) were called active. Another 5% or so got no clear call; they are omitted. Calls follow the shape of the dose curve; as a rule, active = well fitted inhibition curve with a large enough effect; inconclusive = small, poorly fitted or top-dose-only effect; inactive = flat fitted curve, though single readings scatter. This is one part of the list.
Potency is read from the fitted curve at half-maximal effect.

This assay can be described thus: Acumen qHTS Assay for Inhibitors of the mTORC1 Signaling Pathway in MEF (Tsc2-/-, p53-/-) Cells: Sytravon. Also: nearly all actives have a fitted effect of over 50% in size.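 As to activity change, negative = inhibition: plate controls were DMSO for no effect and rapamycin for full effect.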 The following applies: phospho-rpS6 immunofluorescence/PI, 24 h; series mostly up to 38.3 µM; activity change, negative = inhibition: at the top concentration. The method in brief: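 Tsc2-/-, p53-/- MEFs (empty-vector stable line) in DMEM + 10% FBS were treated with compounds 24 h at 37 degree Celsius, fixed, and immunostained for phospho-rpS6 (Alexa-488) with propidium iodide counterstain. Laser-scanning cytometry gave % positive cells, normalized against 7.5 nM rapamycin and DMSO.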
With `O=c1c(N2CCN(c3ccccc3)CC2)csc2ccc(Cl)cc12`, the “activity change, negative = inhibition” value was inactive: 0.178%.

`O=C(CCSCc1cccc(Cl)c1)NCc1ccccc1Cl`: the “activity change, negative = inhibition” value is inactive: 3.12%.

For the compound `CCCCn1cc(S(=O)(=O)c2ccccc2)c(=O)c2cc(F)c(N3CCN(CCC)CC3)cc21`, the “activity change, negative = inhibition” value is inactive: -2.29%.

With `CC1CCCN(c2ncnc3c2cnn3-c2ccc(F)cc2)C1` (configuration not stated), the “activity change, negative = inhibition” value is inactive: 10.6%.

Take `CCN1c2ccccc2-n2cccc2C12CCN(C(=O)Nc1ccccc1Br)CC2`: the “activity change, negative = inhibition” value is inactive: -7.72%.

Take `CCOCCn1ccc2c(OCC(=O)NCc3ccc(F)cc3)cccc2c1=O`: the “activity change, negative = inhibition” value is inactive: 1.03%.

For the compound `COc1ccc(C2CC(=O)N(Cc3ccccc3C)c3c2c(C)nn3-c2nc(C)cc(C)n2)c(OC)c1` (configuration not stated), the “activity change, negative = inhibition” value is inactive: 0.145%.

As to `COc1ccc(-c2nc3c4ccccc4n(CC(=O)Nc4ccc(C(C)C)cc4)c(=O)n3n2)cc1`, the “activity change, negative = inhibition” value was inactive: 0.562%.

On to `COc1ccc(NC(=O)CSC2=Nc3ccccc3C3=NC(CC(=O)NCc4ccccc4OC)C(=O)N23)cc1Cl` (configuration not stated), for which the “activity change, negative = inhibition” value was inactive: -4.34%.

With `CC(C)(C)c1ccc(-c2nc(SCCOc3ccc(Cl)cc3)n3[nH]c(=O)cc3n2)cc1`, the “activity change, negative = inhibition” value is inactive: -8.28%.

Consider `Cc1ccccc1-n1c(SCC(=O)Nc2ccc(Cl)cc2Cl)nc(O)cc1=O`, for which the “activity change, negative = inhibition” value was inactive: 7.94%.

As to `CC(=O)N1CCc2c(sc3c2c(=O)n(-c2ccc(F)cc2)c(=O)n3Cc2cc(C)ccc2C)C1`, the “activity change, negative = inhibition” value is inactive: -5.58%.

In the case of `CCc1sc(Nc2cccc(C)c2)nc1-c1cc2cccc(OC)c2oc1=O`, the “activity change, negative = inhibition” value is inactive: -5.59%.

In the case of `COc1ccc(-c2noc(-c3ccc(N4CCN(C)CC4)c([N+](=O)[O-])c3)n2)cc1`, the “activity change, negative = inhibition” value was inactive: 0.703%.

In the case of `COc1ccc(S(=O)(=O)c2c(O)c(C)cc(NS(=O)(=O)c3ccc(Cl)cc3)c2C(C)C)cc1`, the “activity change, negative = inhibition” value was inactive: 3.24%.

Turning to `COc1cc(C(=O)N2CCN(CCc3ccncc3)CC2)cc(OC)c1OC`, the “activity change, negative = inhibition” value is inactive: -12.2%.

With `COc1cccc(-n2c(=O)c3c(C)c(C(=O)N(C)C)sc3n(Cc3cccc(C)c3)c2=O)c1`, the “activity change, negative = inhibition” value is inactive: -0.928%.

Regarding `COc1ccc(-c2nc(C)c(CCNC(=O)C(=O)Nc3ccccc3F)s2)cc1`, the “activity change, negative = inhibition” value is inactive: 2.29%.

In the case of `Cc1ccc(NC(=O)Cn2c(=O)n(CC3CCC(C(=O)NC(C)C)CC3)c(=O)c3sccc32)cc1` (configuration not stated), the “activity change, negative = inhibition” value is inactive: -12.2%.

With `COc1ccccc1-n1nc(-c2ccccc2)c2cnc3c(F)cc(F)cc3c21`, the “activity change, negative = inhibition” value is inactive: -15.4%.

As for `COc1ccc(C(CNC(=O)COc2cc(C)cc(C)c2)N2CCCCC2)cc1` (configuration not stated), the “activity change, negative = inhibition” value was inactive: -15.5%.

For the compound `COc1ccc(CCN2CCC(CNC(=O)c3cnn(-c4ccc(C)cc4)c3C3CCN(C(=O)OC(C)(C)C)CC3)CC2)cc1`, the “activity change, negative = inhibition” value is inactive: -17.2%.

Consider `Cc1ccc(NC(=O)CSc2nc3ccc(Br)cc3[nH]2)c(C)c1`, for which the “activity change, negative = inhibition” value is inactive: -11.5%.

In the case of `CC1=C(c2ccc(C(C)C)cc2)S(=O)(=O)NC1=NCc1ccccc1C`, the “activity change, negative = inhibition” value was inactive: 0.169%.

For `CN(C)CCN(C(=O)c1ccco1)c1nc2c(F)cc(F)cc2s1`, the “activity change, negative = inhibition” value was inactive: 0.969%.

For `CC1CCN(C(=O)CSc2c3c(nc4ccc(Cl)cc24)CCCC3)CC1`, the “activity change, negative = inhibition” value is inactive: -1.61%.

Consider `COc1ccc(S(=O)(=O)N(CC(=O)Nc2ccc(F)c(Cl)c2)c2ccc(C)cc2)cc1OC`, for which the “activity change, negative = inhibition” value was inactive: -8%.

As for `O=C(COc1ccc(F)cc1)Nc1nnc(S(=O)(=O)N2CCc3ccccc32)s1`, the “activity change, negative = inhibition” value was inactive: -0.369%.

`Cc1nc2c3ccccc3nc(NNC(=O)CCC(=O)N3CCN(c4cccc(Cl)c4)CC3)n2n1`: the “activity change, negative = inhibition” value was inactive: 0.456%.

As for `Cc1cccc(NC(=O)CSc2nc3ccccc3nc2N2CCC(C)CC2)c1`, the “activity change, negative = inhibition” value was inactive: -4.61%.

In the case of `Cc1ccc(Nc2cc(C)nc(-n3nc(C)cc3C)n2)cc1`, the “activity change, negative = inhibition” value was inactive: -17.5%.

As for `O=C(Nc1ccc(OC(F)(F)F)cc1)C1CCN(S(=O)(=O)c2ccc3[nH]c(=O)ccc3c2)CC1`, the “activity change, negative = inhibition” value is inactive: -3.73%.

Take `Cc1ccc(-c2noc(CNC(=O)COc3cc(C)c(Br)c(C)c3)n2)cc1`: the “activity change, negative = inhibition” value was inactive: -0.758%.

For the compound `Cn1cnc(S(=O)(=O)N2CCC(C(=O)Nc3ccc(F)cc3F)CC2)c1`, the “activity change, negative = inhibition” value was inactive: 0%.

Regarding `CCOc1ccc(CNC(=O)c2ccc3c(c2)sc2nc(-c4ccccc4)cn23)cc1`, the “activity change, negative = inhibition” value is inactive: 5.45%.

In the case of `O=C(NC1CCCCC1)c1ccc2c(c1)N(Cc1cccc(F)c1)C(=O)c1ccccc1S2`, the “activity change, negative = inhibition” value was inactive: -1.54%.

As for `O=C(NC1CCCCC1)c1ccc2c(c1)sc1nc(-c3ccc(F)cc3)cn12`, the “activity change, negative = inhibition” value was inactive: 8.25%.

For the compound `Cc1ccc(-n2nc(C(=O)N3CCN(c4ccc(F)cc4)CC3)c(=O)n(C)c2=O)cc1`, the “activity change, negative = inhibition” value was inactive: 0.394%.

Turning to `COc1ccc2nc(NC(=O)c3nc(S(=O)(=O)Cc4ccccc4F)ncc3Cl)sc2c1`, the Potency was active: 14.7 µM.

Consider `COc1ccc(NCc2cc3cc4c(cc3n(CC(=O)Nc3cccc(F)c3)c2=O)OCO4)cc1`, for which the “activity change, negative = inhibition” value is inactive: 0.644%.

`COC(=O)c1ccc(CSc2nc3c([nH]c4ccccc43)c(=O)n2-c2ccc(F)cc2)o1`: the “activity change, negative = inhibition” value is inactive: -6.49%.

For `Clc1ccccc1N1CCN(Cc2nnc(-c3ccccc3)o2)CC1`, the “activity change, negative = inhibition” value was inactive: 2.44%.

For `Cc1ccc(Cl)cc1-n1c(CCC(=O)O)ccc1-c1cccs1`, the “activity change, negative = inhibition” value was inactive: 3.26%.

Regarding `COc1cc(OC)c(NC(=O)Cn2c(=O)c(C(F)(F)F)nc3ccccc32)cc1Cl`, the “activity change, negative = inhibition” value was inactive: 1.13%.

As to `CCc1cccc(NC(=O)Cn2c(=O)n(-c3ccccc3C)c(=O)c3c2c2cc(C)ccc2n3C)c1`, the “activity change, negative = inhibition” value was inactive: -0.556%.

As to `Cc1ccc(CNC(=O)c2ccc(CS(=O)(=O)Cc3ccc(F)cc3)o2)cc1`, the “activity change, negative = inhibition” value is inactive: -9.4%.

For `CCCCc1nn2c(=O)cc(COC(=O)c3cccc(NC(=O)c4cccc(Cl)c4)c3)nc2s1`, the “activity change, negative = inhibition” value is inactive: 27.8%.
